The values that follow come from article PMC4336329 (PLoS ONE, 2015).

SMILES strings stand for the structures. Screen size: about 310,000 compounds; about 14,000 (4.5%) showed an effect of 50% or more. Effects have a minus sign here. The list shows a part of the results.
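Further: peak tail current of the secondary pulse compared with the same well before compound.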

For the test, the target named is human ether-à-go-go-related gene (hERG) potassium channel (human, UniProt Q12809). As to the kind of experiment: primary screen, population patch clamp on CHO cells stably expressing hERG.
Sequence of human ether-à-go-go-related gene (hERG) potassium channel (Q12809 whole entry, looked up): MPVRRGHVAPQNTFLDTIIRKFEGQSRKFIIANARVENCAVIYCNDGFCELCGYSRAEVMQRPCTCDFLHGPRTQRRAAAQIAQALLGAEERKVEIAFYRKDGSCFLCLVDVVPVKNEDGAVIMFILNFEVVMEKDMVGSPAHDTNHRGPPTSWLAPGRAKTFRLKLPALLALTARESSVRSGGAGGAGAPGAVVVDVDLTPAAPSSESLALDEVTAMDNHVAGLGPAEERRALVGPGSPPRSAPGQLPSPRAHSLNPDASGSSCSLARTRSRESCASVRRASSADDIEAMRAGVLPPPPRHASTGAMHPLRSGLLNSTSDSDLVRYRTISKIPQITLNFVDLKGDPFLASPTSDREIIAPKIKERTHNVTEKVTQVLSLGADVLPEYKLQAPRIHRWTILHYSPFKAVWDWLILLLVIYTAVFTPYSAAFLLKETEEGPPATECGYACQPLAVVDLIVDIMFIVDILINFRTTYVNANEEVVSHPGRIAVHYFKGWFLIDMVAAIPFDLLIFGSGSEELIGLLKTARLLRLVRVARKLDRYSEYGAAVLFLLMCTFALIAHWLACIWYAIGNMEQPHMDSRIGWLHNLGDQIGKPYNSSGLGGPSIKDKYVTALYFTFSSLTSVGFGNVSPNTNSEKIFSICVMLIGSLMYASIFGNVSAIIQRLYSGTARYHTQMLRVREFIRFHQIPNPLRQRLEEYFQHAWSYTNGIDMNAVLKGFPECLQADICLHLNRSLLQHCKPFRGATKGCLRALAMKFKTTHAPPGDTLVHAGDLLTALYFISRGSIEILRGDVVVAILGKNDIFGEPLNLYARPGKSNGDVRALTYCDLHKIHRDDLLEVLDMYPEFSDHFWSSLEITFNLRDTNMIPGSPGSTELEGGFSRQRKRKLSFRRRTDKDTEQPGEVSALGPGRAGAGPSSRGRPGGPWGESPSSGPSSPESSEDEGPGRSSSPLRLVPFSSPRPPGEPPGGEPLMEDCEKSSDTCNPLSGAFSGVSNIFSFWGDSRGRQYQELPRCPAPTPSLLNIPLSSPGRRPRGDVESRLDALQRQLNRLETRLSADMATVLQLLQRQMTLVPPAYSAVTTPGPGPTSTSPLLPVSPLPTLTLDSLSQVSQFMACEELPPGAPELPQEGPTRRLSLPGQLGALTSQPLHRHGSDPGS
As for `COc1ccccc1N1CCN(CCNC(=O)Nc2cccc(C)c2C)CC1`, the “hERG current change (%, negative = inhibition) at 10uM” value is listed as -68.8%.
With `CCOc1cc(/C=C2/NC(=O)N(CC(=O)OC)C2=O)ccc1O`, the “hERG current change (%, negative = inhibition) at 10uM” value stood at 3.71%.
Regarding `Cc1ccc(S(=O)(=O)Cc2ccc(C(=O)NC3CCCCCC3)o2)cc1`, the “hERG current change (%, negative = inhibition) at 10uM” value is listed as -19.3%.
For the compound `O=[N+]([O-])c1nn(-c2ccc3c(c2)OCCO3)n(O)c1=NCc1ccccc1Cl`, the “hERG current change (%, negative = inhibition) at 10uM” value is listed as 0.261%.
Consider `CN1C(=O)NC(c2ccc([N+](=O)[O-])cc2)C2=C1CC(C)(C)CC2=O` (stereo not drawn), for which the “hERG current change (%, negative = inhibition) at 10uM” value came out at 7.27%.
Under `O=C1CCCc2c1cc(-c1ccccc1)n2-c1ccccc1` stands -19.3%; under `N#CC1=C(N)SC(N)=C(C#N)C1CCc1ccccc1`, 26.4%; under `Cc1cccc(C)c1NC(=O)CNC(=O)c1ccc2nc[nH]c2c1`, 12.2%.
Under `O=C(c1nn2cccnc2c1Cl)N1CCN(c2ccccc2)CC1` stands 2.01%; under `C=CCn1c(NCc2ccccc2OC)nc2ccccc21`, -18.9%; under `COC(=O)c1cc(S(=O)(=O)NCC2CCN(Cc3cccc(Cl)c3)CC2)c[nH]1`, -41.9%.
As for `CCOc1ccc(NC(=O)C2CCC(CNc3c(N4CCOCC4)c(=O)c3=O)CC2)cc1` (stereo not drawn), the figure is 3.11%.
On to `CCN(CC)C(=O)COc1ccc2oc(-c3ccco3)cc(=O)c2c1`, for which the “hERG current change (%, negative = inhibition) at 10uM” value is -1.47%.
Under `CC1C(=O)N2CCCc3cc(S(=O)(=O)N(C)CCC#N)cc1c32` (stereo not drawn) stands 1.48%.
As for `N#C/C(=C/c1ccc(Cl)cc1)NC(=O)c1ccccc1`, the figure is 7.27%.
For the compound `CC1CCN(CC(=O)Nc2sc3c(c2C#N)CCC3)CC1`, the “hERG current change (%, negative = inhibition) at 10uM” value came out at 8.67%.
As for `CCCCOc1ccc(C(=O)Nc2ccc(S(=O)(=O)Nc3cc(C)on3)cc2)cc1OC`, the figure is 15.7%; as for `CCCCCn1c(N2CCN(c3cccc(Cl)c3)CC2)nc2c1c(=O)[nH]c(=O)n2C`, -29.2%; as for `COc1cc(OC)c(NC(=O)Nc2ccc(OC)c(OC)c2)cc1Cl`, 10.9%.
`O=C1CCC(c2ccccc2)c2ccccc21` (stereo not drawn): the “hERG current change (%, negative = inhibition) at 10uM” value amounted to 10.4%.
Consider `c1nc(NC2CCCC2)c2[nH]cnc2n1`, for which the “hERG current change (%, negative = inhibition) at 10uM” value is -2.8%.
Under `O=C(NCCNc1cc(Cl)ccc1[N+](=O)[O-])c1ccco1` stands -9.34%; under `CCN(CC)C(=O)c1[nH]cnc1C(=O)N[C@@H](C)C(=O)OC(C)(C)C`, -5.56%; under `COc1ccc(/C=C(\NC(=O)c2ccco2)C(=O)Nc2ccc(C(C)=O)cc2)cc1`, 10.8%.
Under `COc1ccc(NC(=O)CSc2ccc(-c3sc(C)nc3C)nn2)cc1OC` stands 1.46%; under `C=CCOc1c(Br)cc(/C=N/Nc2ccc(C(=O)O)cc2)cc1OCC`, -3.21%.
Consider `N#Cc1cccc(Nc2c3c(nc4ccccc24)CCCC3)c1`, for which the “hERG current change (%, negative = inhibition) at 10uM” value is reported as -74.8%.
As for `COc1ccc(CCC(=O)N(C)CC(=O)Nc2cc(C)ccc2C)cc1`, the figure is -5.86%.
Under `O=C(c1cccc(NS(=O)(=O)c2ccc(F)c(F)c2)c1)N1CCN(C(c2ccccc2)c2ccccc2)CC1` stands -14.3%.
Take `COc1ccc(NC2CCCN(C(=O)c3ccc(OC)cc3OC)C2)cc1` (stereo not drawn): the “hERG current change (%, negative = inhibition) at 10uM” value was -6.37%.
Under `O=C(O)c1ccc(NS(=O)(=O)c2ccc3c(c2)OCCO3)cc1` stands -19.3%.
As for `Oc1c(CN2CCOCC2)cc(COCc2ccccc2)c2cccnc12`, the “hERG current change (%, negative = inhibition) at 10uM” value is -26.8%.
Under `COc1ccc(S(=O)(=O)Cc2ccc(C(=O)NCc3ccco3)o2)cc1` stands -28.8%; under `CCCCn1c(N)c(N(CC(C)C)C(=O)C2CC(=O)N(c3ccc(C)cc3)C2)c(=O)[nH]c1=O` (stereo not drawn), 8.87%; under `COc1cccc(NC(=O)N2CCCC2C(=O)NCc2ccc(Cl)cc2)c1` (stereo not drawn), -21.8%.
As for `C/C(O)=C(/C=Nc1ccccc1)C(=O)Nc1ccccc1`, the figure is 8.49%; as for `CCN(CC)S(=O)(=O)c1ccc(N2CCOCC2)c(NC(=O)C2=COCCO2)c1`, 7.38%.
Under `COc1ccc(C2=NN(c3ccccc3)C(c3cn(CCC(=O)O)nc3-c3ccccc3)C2)cc1` (stereo not drawn) stands 1.09%; under `N#CC1=C(N)Oc2nc[nH]c(=O)c2C1c1cccs1` (stereo not drawn), 11%.
For the compound `CCNC(=S)NNC(=O)Nc1ccccc1`, the “hERG current change (%, negative = inhibition) at 10uM” value is recorded as 6.65%.
As for `COc1ccccc1C(=O)Nc1ccnn1C1CCN(C(C)CSC)CC1` (stereo not drawn), the figure is -67%; as for `Cc1c(N)cccc1-c1nc2ccccc2[nH]1`, 17%.
Under `COC(=O)C1=C(C)NC(C)=C(C(=O)OC)C1c1ccc(C)o1` stands 12.7%; under `COn1c(=O)c(-c2ccc(C)cc2)[n+]([O-])c2ccccc21`, 15.5%; under `CNCC(=O)N(CC(C)C)c1c(N)n(CC(C)C)c(=O)[nH]c1=O`, 18.2%.
Under `O=C1C=CC(=O)N1c1ccc(I)cc1Cl` stands 18.9%.
Turning to `COC(=O)C1=C(c2ccc(-c3ccccc3)c(F)c2)C[C@@H]2CC[C@H]1N2C(=O)NCCOc1ccccc1`, the “hERG current change (%, negative = inhibition) at 10uM” value came out at 21.1%.
For the compound `Cc1ccc(P(=Nc2ccccc2)(N2CCOCC2)N2CCOCC2)o1`, the “hERG current change (%, negative = inhibition) at 10uM” value was -17.1%.
As for `CC(=O)N/N=C/c1cc(C(C)(C)C)cc(/C=N/NC(C)=O)c1O`, the figure is 20.5%.
Under `CCOc1c(Cl)cc(CNCC(O)c2ccccc2)cc1OC.Cl` (stereo not drawn) stands -18.8%; under `NS(=O)(=O)c1ccc(N/C=C\C(=O)c2ccc(F)cc2)cc1`, 22%.
As for `Cn1c(O)c(C=NCCN2CCN(C(=O)Nc3ccccc3)CC2)c(=O)n(C)c1=O`, the figure is 13.1%; as for `Cl.O=[N+]([O-])c1cc(CN(CCO)CCO)ccc1O`, -2.79%; as for `CC[C@H](C)[C@H](NC(N)=O)C(=O)Nc1ccc(OC)c(Cl)c1`, 20.9%.
As to `Cc1cc(OC(=O)c2cc(Br)ccc2Cl)c([N+](=O)[O-])c(=O)[nH]1`, the “hERG current change (%, negative = inhibition) at 10uM” value is given as -2.53%.
With `O=C(Cc1cccc2ccccc12)NCC(=O)Nc1ccccc1F`, the “hERG current change (%, negative = inhibition) at 10uM” value was found to be 3.24%.
Under `CC(CSc1nnnn1-c1ccccc1)Cn1c(N2CCN(C)CC2)nc2c1c(=O)[nH]c(=O)n2C` (stereo not drawn) stands -43.6%.
